According to PubChem BioAssay AID624418 (National Center for Advancing Translational Sciences (NCATS), 2012):
Screen size: about 410,000 compounds; about 530 (0.13%) were called active. Inconclusive results, whose numbers are uncertain, are shown with a selection of clear calls. Calls follow the shape of the dose curve; as a rule, active = well fitted inhibition curve with a large enough effect; inconclusive = small, poorly fitted or top-dose-only effect, or another doubt; inactive = no such curve, though single readings can be large or run the other way. A potency beside an inconclusive call is a rough fit, not a confirmed value.

Test: qHTS of GLP-1 Receptor Inverse Agonists: Cytotox Screen
Settings: HEK293 cAMP-luciferase reporter cells, luminescence, 24 h; activity change, negative = inhibition: at 38.3 µM (top of the series) unless noted
Summary of the method: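 Compound-treated cells are incubated 24 hr at 37 deg C under 5% CO2 after a 12 hour attachment period, then luciferase detection reagent is added and luminescence is measured following 12 min at room temperature; lowered signal indicates toxicity.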
% is scaled to controls: 0 for no effect and ±100 for the full control effect; potency is read from the fitted curve at half-maximal effect.

Compound	Potency	activity change, negative = inhibition
CCN(CC)CCn1c(=N)n(CC(O)COc2cccc(C)c2)c2ccccc21 (centres undefined)	inconclusive: 22.4 µM [inhibitor, single point]	–
CCOC(=O)c1ccc(N2C(=O)c3[nH]nc(-c4ccc(OC)cc4)c3C2c2cccc(O)c2)cc1 (centres undefined)	inconclusive: 14.1 µM [inhibitor, single point]	–
COc1ccccc1NC(=O)Cn1nnc(C(=O)NCc2cccs2)c1N	inconclusive: 10 µM [inhibitor, partial curve]	–
N=c1n(Cc2ccccc2)c2ccccc2n1CC(O)COc1ccccc1 (centres undefined)	inconclusive: 10 µM [inhibitor, single point]	–
Cc1cccc(-c2nc(NCCCN(C)C)c3ccccc3n2)c1	inconclusive: 11.2 µM [inhibitor, partial curve, poor fit]	–
COCCNC(=O)C1CCCN(Cc2cccc(C#N)c2)CC1 (centres undefined)	–	inactive: -0.73%
COc1ccc(NC(=O)CSc2nc(C3CC3)nc3ccccc23)c(OC)c1	inconclusive: 5.62 µM [inhibitor, partial curve]	–
COc1cc(OC)cc(C2=Cc3ccc(OC)cc3C(CC(C)=O)N2c2ccc(C#CC3(N)CCCCC3)cc2)c1 (centres undefined)	inconclusive: 28.2 µM [inhibitor, single point]	–
COc1ccc(CN2CCC(Cc3ccccc3)CC2)c(C)c1C	inconclusive: 28.2 µM [inhibitor, single point]	–
CSc1cccc(NC(=S)N(CCN(C)C)C(C)c2ccccn2)c1 (centres undefined)	inconclusive: 28.2 µM [inhibitor, single point]	–
CCOc1ccc(CN2CCCN(C)CC2)cc1	inconclusive: 6.31 µM [inhibitor, partial curve]	–
O=c1c2ccccc2sn1-c1cccc(Cl)c1	inconclusive: 8.91 µM [inhibitor, partial curve, poor fit]	–
CCCCc1ccc(NC(=O)CSc2nc(=O)n(CCCN3CCOCC3)c3c2CCC3)cc1	inconclusive: 28.2 µM [inhibitor, single point]	–
Cc1ccc(NC(=S)NCc2ccc3[nH]c4c(c3c2)CCCC4)cc1	inconclusive: 28.2 µM [inhibitor, single point]	–
Cc1cc(C)c2cccc(N)c2n1	inconclusive: 25.1 µM [inhibitor, single point]	–
COc1ccccc1/C=C/C(=O)/C=C/c1ccccc1O	inconclusive: 28.2 µM [inhibitor, single point]	–
Cn1c(=O)[nH]c(=O)c2c1nc(Br)n2CCCSc1nc2ccccc2o1	inconclusive: 6.31 µM [inhibitor, full curve, poor fit]	–
CCn1c2ccccc2c2cc(/C=N/NC(=O)c3ccccc3)ccc21	inconclusive: 2 µM [inhibitor, full curve, poor fit]	–
O=C1C(Cl)=C(Nc2ccccc2)C(=O)c2ccccc21	inconclusive: 10 µM [inhibitor, partial curve, poor fit]	–
COc1cc(OC)cc(C(=O)NC2CCN(CCCOc3ccccc3)CC2)c1	–	inactive: -7.72%
COc1cc(C(=O)N(Cc2ccccc2)c2cccc(C)c2)ccc1OC(F)F	–	inactive: 9.15%
Cc1cc(C)nc(SCC(=O)NC2=NN=C(c3ccc(Br)cc3)CS2)n1	inconclusive: 14.1 µM [inhibitor, single point]	–

Compound	Potency	activity change, negative = inhibition
COCCn1c(SCc2cccnc2)nnc1-c1c[nH]c2ccccc12	inconclusive: 10 µM [inhibitor, partial curve, poor fit]	–
COc1ccc(C2C3C=CCC(c4cccc(-c5ccc(C)cc5)c4)C3C(=O)N2Cc2ccccc2)cc1Cl (centres undefined)	–	inactive: 1.54%
CCN1C(=O)/C(=C\N2CCCCCC2)SC1=S	inconclusive: 11.2 µM [inhibitor, single point]	–
COCCN(C(=O)COC(=O)C(c1ccccc1)c1ccccc1)c1c(N)n(Cc2ccccc2)c(=O)[nH]c1=O	–	inactive: 1.22%
COCCN(C(=S)Nc1ccc(OC)c(Cl)c1)C1CCN(C(C)C)CC1	inconclusive: 3.55 µM [inhibitor, full curve, poor fit]	–
Cc1oc2ccc(NS(=O)(=O)c3ccccc3)cc2c1C(=O)Nc1ccccc1	–	inactive: -13.8%
CCCc1nc(SCC(=O)c2ccc(F)cc2)c2ccccc2n1	inconclusive: 28.2 µM [inhibitor, single point]	–
CC(C)Oc1nc(-c2ccccc2Cl)nc2ccccc12	inconclusive: 12.6 µM [inhibitor, single point]	–
CCCC1(c2ccccc2)NC(=O)N(CC(=O)Nc2cc(C)ccc2OC)C1=O (centres undefined)	inconclusive: 3.98 µM [inhibitor, partial curve]	–
c1ccc(Nc2nc3ccccc3[nH]2)nc1	inconclusive: 12.6 µM [inhibitor, partial curve]	–
C=CCOc1ccc(CN(C)CC(O)COc2cccc3ccccc23)cc1 (centres undefined)	inconclusive: 28.2 µM [inhibitor, single point]	–
CCOC(=O)/C(C#N)=N/Nc1ccc(S(=O)(=O)N2CCc3ccccc32)cc1	inconclusive: 15.8 µM [inhibitor, partial curve, poor fit]	–
C#CCOCCOCCOCCNc1nc(N2CCN(C(=O)CCCCCCCCCCNC(=O)[C@H]([C@@H](C)CC)n3cc(CCCCN=C(N)N)nn3)CC2)nc(N2CCN(C(=O)CCCCCCCCCCNC(=O)[C@H](CCCCN)n3cc(C)nn3)CC2)n1	inconclusive: 28.2 µM [inhibitor, single point]	–
NC(=O)CCN1CCN(CCOC2Cc3cc(Cl)ccc3Sc3ccccc32)CC1 (centres undefined)	inconclusive: 7.94 µM [inhibitor, partial curve]	–
CCNC(=S)N1CCN(c2ccc([N+](=O)[O-])cc2)CC1	inconclusive: 31.6 µM [inhibitor, single point]	–
COc1ccc(C(=O)NCCn2cc(SCc3cccc(F)c3)c3ccccc32)cc1OC	–	inactive: -11.1%
C/C(=N\NC(=O)c1ccncc1)c1cccc(NC(=O)c2ccc(C(C)(C)C)cc2)c1	inconclusive: 10 µM [inhibitor, partial curve, poor fit]	–
O=[N+]([O-])c1ccc2[nH]c(O)c(N=NC(=S)NCC3CCCO3)c2c1 (centres undefined)	inconclusive: 10 µM [inhibitor, partial curve]	–
CCOC(=O)[C@H]1[C@H]2COc3cc(OC)ccc3[C@@H]2N2C(=O)CN(Cc3ccc(OC)cc3)C(=O)[C@@]12C	inconclusive: 4.47 µM [inhibitor, full curve, poor fit]	–
Cc1c(C(=O)NC(C)c2ccccc2)sc2ncnc(N(C)C3CCCCC3)c12 (centres undefined)	–	inactive: 6.93%
CC1CCCCC1NC(=S)NC(=O)c1ccccc1Cl (centres undefined)	inconclusive: 28.2 µM [inhibitor, single point]	–
COc1cc(C(CCN2CCN(c3ccccc3)CC2)c2c(OC)cc(OC)c3ccc(=O)oc23)cc(OC)c1OC (centres undefined)	inconclusive: 12.6 µM [inhibitor, partial curve, poor fit]	–

Compound	Potency	activity change, negative = inhibition
CCC(C)NCCOCCOc1ccc(Cl)cc1Br (centres undefined)	inconclusive: 28.2 µM [inhibitor, single point]	–
CC(C)N1CCN(Cc2ccc3c(c2)Cc2ccccc2-3)CC1CCO (centres undefined)	inconclusive: 17.8 µM [inhibitor, partial curve, poor fit]	–
Cc1cccc(NC(=O)C(C)OC(=O)c2ccccc2NS(=O)(=O)c2cc(C)c(C)c([N+](=O)[O-])c2)c1 (centres undefined)	inconclusive: 31.6 µM [inhibitor, single point]	–
CN(CC(=O)Nc1cccc(S(=O)(=O)N2CCCC2)c1)CC(=O)Nc1ccc(Cl)c(C(F)(F)F)c1	inconclusive: 28.2 µM [inhibitor, single point]	–
CCOC(=O)c1sc(NC(=O)C2CC(=O)N(c3ccccc3C)C2)nc1C (centres undefined)	–	inactive: -3.08%
CCn1c2c(c(=N)c3c1CCC3)CCC2	–	inactive: 26.7%
Cc1cccc(C)c1NC(=O)CN1C(=O)CCSc2ccc(S(=O)(=O)N3CCCC3)cc21	inactive	–
Nc1ccc2c(c1)[nH]c(=O)c1ccccc12	–	inactive: 4.84%
CCn1c(O)c(N=NC2=NC(=O)CS2)c2ccccc21	inconclusive: 11.2 µM [inhibitor, single point]	–
CC1Oc2ccccc2C=C1/C=N/NC(=O)c1ccccc1O (centres undefined)	inconclusive: 12.6 µM [inhibitor, single point]	–
CCOc1ccc(NC(=O)CCN2CCN(S(=O)(=O)c3cc(Cl)ccc3OC)CC2)cc1	–	inactive: -14.1%
O=C(CSc1ncnc2c1oc1ccccc12)Nc1nc2ccccc2s1	inconclusive: 31.6 µM [inhibitor, single point]	–
O=C(Nc1cc2c(cc1Cl)-c1ccc([N+](=O)[O-])cc1C2=NO)C(F)(F)F	inconclusive: 31.6 µM [inhibitor, partial curve, poor fit]	–
COc1cc([N+](=O)[O-])cc2cc(C(=O)N3CCCC3)c(=O)oc12	inconclusive: 11.2 µM [inhibitor, single point]	–
O=C(CN1CCC(C(=O)c2ccc3c(c2)OCCO3)CC1)Nc1ccccc1F	–	inactive: 6.96%
CC(C)(C)c1ccccc1OCCOCCNCc1ccccc1	inconclusive: 28.2 µM [inhibitor, single point]	–
CC(C)(C)c1ccc(OCc2ccc(C(=O)N/N=C/c3ccc(O)c(O)c3)cc2)cc1	inconclusive: 11.2 µM [inhibitor, single point]	–
COc1ccc(CNC(=O)C(c2ccc(C)o2)N(Cc2cccs2)C(=O)Cc2cccs2)cc1 (centres undefined)	inconclusive: 11.2 µM [inhibitor, single point]	–
COc1ccc(NC(=O)c2ccc(CN3C(=O)CCn4nc(C)cc43)cc2)c(OC)c1	–	inactive: 0.47%
CCCC(=O)Nc1ccc2c(c1)nc(CN1CCN(C(=O)OCC)CC1)n2C(C)C	inconclusive: 1 µM [inhibitor, full curve, poor fit]	–
